Measurements published in the antibiotic and cytotoxicity screens of Wong et al. (2023).
Some of the results follow.

test system: S. aureus RN4220; experiment: growth inhibition call (relative growth <= 0.2); details: 50 µM

Growth inhibition call, inactive:
CO[C@@H]1CN(C)C(=O)c2ccc(NC(=O)c3nc4ccccc4s3)cc2OC[C@@H](C)N(Cc2ccccc2)C[C@H]1C
COCC(=O)Nc1ccc2c(c1)C(=O)N(C)[C@H]1CC[C@H](CC(=O)NCc3ccc(OC)cc3)O[C@H]1CO2
C[C@@H]1CCCCO[C@H](CN(C)C(=O)Nc2ccccc2)[C@H](C)CN([C@@H](C)CO)C(=O)c2cc(NC(=O)c3ccncc3)ccc2O1
COc1ccc(S(=O)(=O)N[C@@H]2C=C[C@H](CC(=O)N3CCN(c4ccccc4)CC3)O[C@@H]2CO)cc1
Nc1cnn(-c2ccccc2)c(=O)c1N
CO[C@@H]1CN(C)C(=O)c2cc(NS(C)(=O)=O)ccc2OC[C@@H](C)N(C(=O)c2ccc3c(c2)OCO3)C[C@H]1C
C[C@H]1CN([C@@H](C)CO)C(=O)Cc2cc(NC(=O)C3CCCCC3)ccc2O[C@H]1CN(C)S(=O)(=O)c1cn(C)cn1
COCC(=O)N(C)C[C@H]1Oc2cc(C#CCN(C)C)ccc2S(=O)(=O)N([C@H](C)CO)C[C@H]1C
O=C(CN1CCOCC1)NCC[C@@H]1CC[C@H](NS(=O)(=O)c2ccc(F)cc2)[C@@H](CO)O1
C[C@@H]1CCCCO[C@H](CN(C)S(=O)(=O)c2ccc(F)cc2)[C@@H](C)CN([C@H](C)CO)C(=O)c2cc(NC(=O)c3ccccc3)ccc2O1
C[C@@H]1CCCCO[C@@H](CN(C)C(=O)Nc2ccc(C(F)(F)F)cc2)[C@H](C)CN([C@@H](C)CO)C(=O)c2cc(NC(=O)CCC(F)(F)F)ccc2O1
C[C@H]1CN([C@@H](C)CO)C(=O)c2cc(NC(=O)Nc3ccc4c(c3)OCO4)ccc2O[C@@H]1CN(C)S(=O)(=O)c1cn(C)cn1
C[C@@H]1CN([C@@H](C)CO)S(=O)(=O)c2ccc(C#Cc3ccccc3F)cc2O[C@@H]1CN(C)CC1CCOCC1
O=C(C[C@@H]1CC[C@@H]2[C@H](COC[C@@H](O)CN2S(=O)(=O)c2ccc(Oc3ccccc3)cc2)O1)NCCN1CCCCC1
COc1ccc(CN(C)C[C@@H]2OCCCC[C@@H](C)Oc3ccc(NC(=O)Nc4ccc(F)cc4)cc3C(=O)N([C@@H](C)CO)C[C@H]2C)cc1
C[C@@H]1CN([C@H](C)CO)C(=O)c2cc(NC(=O)Nc3ccc(C(F)(F)F)cc3)ccc2O[C@H]1CN(C)C(=O)NC1CCCCC1
C[C@H](CO)N1C[C@H](C)[C@@H](CN(C)Cc2ccc(O)cc2)OCc2ccccc2-c2c(n(C)c3ccccc23)C1=O
COc1ccc(COC[C@]23N=C4SCCCN4[C@H](c4ccccc4O2)[C@H]3COC(=O)c2ccccc2)cc1
Cc1noc(C)c1S(=O)(=O)N(C)C[C@@H]1Oc2ccc(NS(=O)(=O)c3cccs3)cc2CC(=O)N([C@H](C)CO)C[C@H]1C
C[C@H]1CN([C@@H](C)CO)C(=O)c2cc(NC(=O)Cc3cn(C)c4ccccc34)ccc2O[C@@H]1CN(C)Cc1ccc(Cl)c(Cl)c1
C[C@H]1CCCCO[C@@H](CN(C)CC2CCCCC2)[C@@H](C)CN([C@@H](C)CO)C(=O)c2cc(NC(=O)Nc3ccc(C(F)(F)F)cc3)ccc2O1
CC(C)NCC(O)COc1cccc2[nH]c3ccccc3c12 (stereo not given)
Cl.NC(Cc1ccc(Cl)cc1)C(=O)O (racemic)
C[C@H](CO)N1C[C@H](C)[C@@H](CN(C)Cc2ccncc2)Oc2c(NS(=O)(=O)c3cn(C)cn3)cccc2C1=O
Cc1nc(COP(=O)(O)O)cc2c1[O][Mn][O]c1c(cc(COP(=O)(O)O)nc1C)CN(CC(=O)O)CCN(CC(=O)O)C2
Cc1ccc(S(=O)(=O)N(C)C[C@H]2OCCCC[C@@H](C)Oc3ccc(NC(=O)Nc4ccccc4)cc3C(=O)N([C@H](C)CO)C[C@H]2C)cc1
COc1ccc(S(=O)(=O)N[C@@H]2C=C[C@H](CC(=O)N3CCN(c4ccccc4)CC3)O[C@H]2CO)cc1
COCC#Cc1cnc2c(c1)C(=O)N([C@@H](C)CO)C[C@@H](C)[C@H](CN(C)S(=O)(=O)c1cn(C)cn1)O2
O=C(C[C@@H]1CC[C@H](NC(=O)c2cnccn2)[C@@H](CO)O1)NCc1ccccc1F
COc1cccc(C#Cc2cnc3c(c2)C(=O)N([C@H](C)CO)C[C@@H](C)[C@@H](CN(C)C(=O)C2CCC2)O3)c1
